# Screen size: about 150,000 compounds; about 540 (0.36%) showed an effect of 50% or more. The list shows a part of the results.
# Tested on: Plasmodium falciparum
# Assay: Primary screen in NF54 nanoGlo assay, in single point, at 2uM, 72h; a lower Z score goes with more inhibition
# Format: functional, Erythrocyte
# Details: timepoint 72 hour
SMILES,% Inhibition,Z score
Cc1cc(C)cc(OCc2noc(CN(C)C3(C(N)=O)CCCC3)n2)c1,-4%,0.56
C[C@@H](c1nc(-c2cccs2)no1)N1CCc2cncnc2C1,-10%,1.05
O=C(O)[C@H]1CC[C@@H](C(=O)N2CCc3c(Cl)cccc32)C1,-12%,2.4
O=C(CCc1cccc2ccccc12)NCCN1CCOCC1,3%,-0.58
NC(=O)C1CCCCC1Nc1nccc(C(F)(F)F)n1 (configuration not stated),-2%,0.24
O=S(=O)(NCc1cc2n(n1)CCCNC2)c1cc(Cl)c(Cl)s1,-21%,2.66
COc1ccc(NC(=O)Cn2cnc3c(nc4n3CCCCC4)c2=O)cc1,-4%,0.6
CN(CCn1cc(Cl)cn1)Cc1cnccn1,-14%,1.55
COc1ccc(-c2cncc(CN3CCCC3)c2)cc1OC,-9%,1.71
CN1C(=O)CC[C@H](NC(=O)c2cc3c([nH]2)CCCC3)C1=O,-13%,1.75
C[C@@H](C(=O)NCc1cccs1)S(=O)(=O)c1cccc(Cl)c1,-9%,1.86
CCN(C(=O)CCc1ccccn1)[C@@H](C)c1cccc(O)c1,-13%,1.22
Cc1ccc(N2CCC(NCCc3csc(-c4ncccn4)n3)CC2)cc1,-9%,1.91
Oc1cccc(CN(Cc2cccnc2)C2CCC(O)CC2)c1 (configuration not stated),-19%,2.68
Cc1cc(C)c(-c2nccn2CCN(C)C)cc1Cn1cncn1,-9%,1.45
CCCCC(C(=O)N1CCN(CC(=O)N2CCCCC2C)CC1)N1CCCS1(=O)=O (configuration not stated),-3%,0.38
Cc1cc(O[C@H]2CCN(C(=O)CC(C)(C)C)C2)nc(C)n1,-4%,0.57
CN(CCc1ccccn1)c1nc(C(F)(F)F)cs1,-4%,0.46
CCOc1nnc(CN(C)[C@@H](C)c2ccc(F)cc2)s1,-11%,1.55
CCCc1nc(N[C@@H](C)c2nncn2C(C)C)c2cnn(C)c2n1,5%,-0.74
Fc1ccc(COC2CCN(Cc3csnn3)CC2)cc1,-4%,0.6
CS(=O)(=O)Nc1ccc(F)c(NC(=O)NC2CCOCC2)c1,-3%,0.54

SMILES,% Inhibition,Z score
CN(C[C@H]1CCS(=O)(=O)C1)C1CCCCCCC1,0%,-0.03
CC(C)[C@@](C)(C#N)NC(=O)CN(C)CC1CCCCC1,-12%,1.45
COc1ccc(OC)c(Nc2ncc3c(n2)CCNC3)c1,-4%,0.61
Cc1nc(N2C[C@@H](F)C[C@H]2CO)sc1S(N)(=O)=O,-40%,4.71
Cc1nccn1[C@@H](C)Cc1nc(C2CCCC2)nn1CC(F)(F)F,6%,-0.66
Cc1cc(=O)[nH]c2cc(C(=O)NC3CCN(CC(F)(F)F)CC3)ccc12,-3%,0.57
O=C(NC1CCCCCC1)c1ccc(-c2c(-c3ccc(F)cc3)ncn2C2CCCCC2)o1,-2%,0.25
CCN1CCN(C(=O)NCc2noc3c2CCCC3)CC1=O,-24%,2.16
CC(C)(C)OC(=O)N1CCN(c2nnc(NCc3ncc[nH]3)[nH]2)CC1,-11%,1.82
CC(C)Cc1nnc(C(=O)Nc2ccc(C(=O)NCCN(C)C3CCCCC3)cc2)s1,-7%,0.85
COCC1(CNC(=O)NCc2cccnn2)CCC1,4%,-0.64
Cc1ccn2c(NC(=O)CCOc3ccccc3)nnc2n1,-5%,0.68
c1ccc(-c2ccc(Nc3cc(-c4ccccc4)nc(-c4ccccc4)n3)cc2)cc1,-14%,1.62
COc1ccc(C(=O)Nc2ccn(Cc3ccccc3F)n2)cc1COc1ccccc1Br,3%,-0.37
Cc1ccc(C(=O)N2[C@H](C(=O)NCc3ccncc3)COC23CCN(C(=O)CC(C)(C)C)CC3)cc1,7%,-0.85
CCOc1ccc([C@H]2C[C@@H](c3ccc(CC)cc3)Nc3nnnn32)cc1OC,-16%,2.46
CCN(Cc1nc2cc(Cl)ccc2c(=O)[nH]1)C(=O)c1ccc2nc(C)c(C)nc2c1,-2%,0.38
CC(CC1CCOC1)NCc1ccccc1 (configuration not stated),-9%,1.3
Cc1noc(C)c1CNc1ccc(C(=O)N2CCC(C)CC2)cn1,-20%,3.93
C[C@]1(c2ccc(Cl)c(Cl)c2)NC(=O)N(Cc2nc3ccccc3s2)C1=O,1%,-0.09
CCc1nnc(CN(C(=O)c2cc(C)c(C)[nH]c2=O)C(C)C)o1,-17%,3.4
O=C(NC[C@H]1CCCNC1)c1ccc2nc(-c3ccc(F)cc3)cn2c1,11%,-1.55

SMILES,% Inhibition,Z score
COc1ccc(S(=O)(=O)Nc2c(C)ccc(O)c2C)cc1[C@@]1(C)NC(=O)NC1=O,6%,-0.69
COC[C@H](C)NC(=O)c1cc(-c2ccc(C3CCCCC3)cc2)on1,-5%,0.95
Cc1cccn2c(=O)c(C(=O)Nc3ncc(C4CCNCC4)s3)cnc12,-17%,2.16
Cc1cc(N(C)C)cc(C)c1NC(=O)N(C)[C@@H](C)C1CC1,-16%,3.01
O=C1C[C@@H](c2ccccc2)N(C(=O)CC2CCCC2)CCN1,2%,-0.31
O=C(Cn1ccc2c(=O)[nH]ccc21)Nc1cccc(Br)c1,-16%,1.55
CC#CC(=O)N(Cc1cc(Br)ccc1OCC)C1CC1,1%,-0.22
CC(C)(C)c1cn(C2CCN(C(=O)[C@]3(C)CCCO3)CC2)nn1,-2%,0.37
CO[C@H]1CCC12CCN(S(=O)(=O)c1c(C)noc1C)CC2,-1%,0.09
Cc1ccsc1CN1CCn2nc(CCC(=O)O)cc2C1,-12%,1.83
Cc1ccc(NCn2nc(-c3ccccc3)oc2=S)c(C)c1,-3%,0.42
COc1cccc2c1Oc1c(c(=O)n(-c3ccc(C)cc3C)n1CC(=O)Nc1ccc(C)cc1C)C2,9%,-0.9
COc1ccc(CC(=O)N2CC[C@@H](CC(=O)O)[C@@H](CCN3CCCCC3)C2)cc1,11%,-1.32
Cc1cc(C2CCC(C(=O)O)CN2C(=O)C2CCCC2)ccc1F (configuration not stated),3%,-0.46
C[C@@H](c1nnnn1C1CC1)S(=O)(=O)C1CCC(C)(C)CC1,-12%,1.93
O=C(Oc1nsnc1N1CCOCC1)N1CCCCC1,-3%,0.4
CCOc1ncccc1C(=O)N1CCc2n[nH]c(C(=O)NC)c2C1,0%,-0.08
O=C(OCc1nc(-c2ccccc2)no1)[C@@H]1COc2ccccc21,0%,-0.05
O=C(Nc1cccnc1)[C@H]1CCC(F)(F)C1,9%,-1.35
O=C(Cc1ccc(F)cc1Cl)NC1(C(=O)O)CCC1,-7%,0.96
CC(C)N1CCN(C(=O)CN2C(=O)[C@@H]3CCCN3C(=O)c3cc(F)ccc32)CC1,-2%,0.27
CNC(=O)[C@H]1CC[C@H](CNc2nc(C)cnc2C)CC1,0%,0.01

SMILES,% Inhibition,Z score
CCOC(=O)c1cnc(NS(=O)(=O)c2ccc(F)c(Cl)c2)n1C,-3%,0.45
NC[C@H]1CN(S(=O)(=O)c2ccc3c(c2)CCC3)CCO1,-12%,1.65
Cn1cc(CN2CCC[C@@H](NC(=O)OC(C)(C)C)C2)cn1,-1%,0.1
COCCOc1cc(C(=O)NCc2nc(C)no2)ccn1,-11%,1.99
CCN(CC)CCNC(=O)C1CCN(c2c(NC(C)=O)c(C)nn2-c2ccccc2)CC1,-13%,2.33
Cc1nc(C)c(C(=O)N(C)Cc2nc3ccccc3c(=O)[nH]2)s1,-16%,2.1
O=C(c1cncc(F)c1)N1C2CCC1CC(Oc1cccnc1)C2 (configuration not stated),-7%,1.48
Cc1cc(C(C)(O)CNC(=O)NC(c2ccccn2)C(C)C)c(C)o1 (configuration not stated),0%,0.04
CCOCCC1(CN[C@@H](C)CCOC)CCCC1,-11%,0.94
Cc1ccccc1C(C)(C)CNC(=O)NC[C@](C)(O)c1cnn(C)c1,-1%,0.17
Cc1c(CNC2CCCC2)c(C(=O)O)c(C)n1Cc1ccccc1Cl,-3%,0.41
CN(CCC1CCOCC1)C(=O)c1ccc(O)c(Cl)c1,-5%,0.88
CC(C)C[C@H]1C[C@@H]1C(=O)Nc1nccnc1C1CC1,-1%,0.15
O[C@@H]1CCCCC[C@H]1NCc1ccc2c(c1)OCCCCO2,-12%,1.33
CCC1CC(CC(=O)Nc2ccc3oc(C(N)=O)nc3c2)CCO1 (configuration not stated),-16%,2.03
O=C(NCc1ccccc1)N1CCOC[C@@H]1CC1CCOCC1,0%,-0.02
C=CCOC[C@@H](O)CN(CCC(C)C)Cc1c(-c2ccccc2)noc1N(C)C(C)C,-3%,0.49
CS(=O)(=O)C1CCCCC1NC1CCOc2ccc(F)cc21 (configuration not stated),-11%,1.4
CCOC(=O)COCCNC(=O)c1ccnc2[nH]cnc12,-10%,1.58
CC(=Cc1cnc(C(C)(C)C)nc1)c1ncccn1,-1%,0.11

# — ChEMBL document CHEMBL4888484, “Replenishing the malaria drug discovery pipeline: Screening and hit evaluation of the MMV Hit Generation Library 1 (HGL1) against asexual blood stage Plasmodium falciparum ,using a nano luciferase reporter read-out” (2022)
